# The campaign covered roughly 410,000 compounds. About 260 (0.063%) were called active. Inconclusive results, whose numbers are uncertain, are shown with a selection of clear calls. Calls come from the whole dose curve; as a rule, active = well fitted activation curve with a large enough effect; inconclusive = small, poorly fitted or top-dose-only effect; inactive = no such curve, though single readings can be large or run the other way. Potencies of inconclusive entries are left out as doubtful fits.
# Assay: qHTS for compounds that reverse cellular toxicity of Amyloid beta (A-beta) peptide in yeast: Primary Screen; note: nearly all actives have a fitted effect of over 55% in size
# Details: yeast expressing A-beta42, growth rescue, OD600, 48 h; growth rescue: at 46.1 µM (top of the series), 0% DMSO, 100% iron-clioquinol control
# Outline: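 Yeast growth medium received pinned compounds, then yeast cells expressing toxic A-beta were added; plates incubated at 30 C for 48 hr. Growth read as absorbance at 600 nm, normalized to DMSO and equimolar FeCl3 plus clioquinol controls.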
# Potency is the fitted concentration of half-maximal effect; tags give direction and shape of the fitted curve.
Compound,Potency,growth rescue
COCc1nnc(NC(=O)c2ccc(S(=O)(=O)N3CCCc4ccccc43)cc2)o1,inactive,–
COC(=O)c1ccc(NC(=O)CSc2cn(CC(=O)N3CCCCCC3)c3ccccc23)cc1,inactive,–
O=C(O)C(Oc1ccc(Cl)cc1)c1ccc(Cl)cc1 (stereo not given),"inconclusive [activator, single point]",–
Cc1ccc(SC(C)C(=O)N2CCN(c3ccccc3)CC2)cc1 (stereo not given),"inconclusive [activator, partial curve, poor fit]",–
O=C(N/N=C/c1cccc2cccnc12)c1ccccc1O,"inconclusive [activator, single point]",–
COCCN(C(=S)Nc1c(C)cc(C)cc1C)C(C)c1cccs1 (stereo not given),"inconclusive [activator, single point]",–
Cn1nc(-c2ccccc2F)c2cc(C(=O)N3CCN(c4ccc(F)cc4)CC3)sc21,inactive,–
CC(=O)N1c2ccccc2C(=O)C1N1CCN(c2cccc(C(F)(F)F)c2)CC1 (stereo not given),"inconclusive [activator, partial curve, poor fit]",–
C/C(=N\NC(=S)NCc1ccccc1)c1ccc(C)o1,"inconclusive [activator, partial curve, poor fit]",–
CCOC(=O)c1ccc(NC(=O)c2nc[nH]c2C(=O)N[C@@H](C)C(=O)OC(C)(C)C)cc1,inactive,–
FC(F)Sc1ccc(NC(=S)NCc2ccccc2)cc1,"inconclusive [activator, single point]",–
COc1ccc(CNC(=S)NC(C)CCc2ccccc2)cc1 (stereo not given),"inconclusive [activator, partial curve, poor fit]",–
COc1cccc(NC(=O)N2CCc3nc(Nc4ccc(C(C)C)cc4)ncc3C2)c1,"inconclusive [activator, single point]",–
CC1C(=O)C(C)C(c2ccc(Br)cc2)NC1c1ccc(Br)cc1 (stereo not given),"inconclusive [activator, full curve]",–
Oc1ccccc1N=N/C(=N/Nc1ccccc1O)c1ccccc1,inactive,–
O=C(NC(=S)NCc1ccccc1)c1ccc(Br)cc1,"inconclusive [activator, single point]",–
CC1SC(c2ccccc2Cl)NC1=O (stereo not given),"inconclusive [activator, single point]",–
COC(=O)CS(=O)(=O)c1nc2ccccc2nc1N1CCCCC1,inactive,–
COc1ccc2cc(-c3nc4ccc(C(=O)O)cc4[nH]3)c(=O)oc2c1,inactive,–
O=C(/C=C/c1ccco1)Nc1cccc(-c2nc3ccccc3[nH]2)c1,"inconclusive [activator, partial curve, poor fit]",–
COC(=O)c1sc(N)nc1CCNC(=O)OC(C)(C)C,inactive,–
CCn1c(CN2c3ccccc3Sc3ccccc32)n[nH]c1=S,active: 15.8 µM,–
CCN(CC)C(=S)Sc1c(-c2ccccc2)c2cc(Cl)ccc2[nH]c1=O,"inconclusive [activator, single point]",–
Cc1nn(Cc2ccccc2)c(C)c1NC(=O)c1cc(-c2cccs2)on1,"inconclusive [activator, partial curve]",–

Compound,Potency,growth rescue
CCOC(=O)c1[nH]c(C)c(CCC(=O)NCc2ccc(OCC)cc2)c1C,inactive,–
Cn1nccc1C(=O)N1CCCC(C(=O)c2cccc3ccccc23)C1 (stereo not given),"inconclusive [activator, single point]",–
Cc1cccc(C)c1Nc1sc(C(=O)c2ccccc2)c(N)c1C(=O)Nc1ccc(F)cc1,inactive,–
O=C(Nc1nc2ccc(S(=O)(=O)N3CCCCC3)cc2s1)c1cccnc1,inactive,–
Cc1ccc(Cl)cc1-c1cc(C(=O)Nc2ccc(F)cc2)[nH]n1,"inconclusive [activator, full curve, poor fit]",–
CC(=O)c1ccc(C(=O)N2CCc3c([nH]c4ccccc34)C2c2ccccn2)s1 (stereo not given),"inconclusive [activator, single point]",–
CCC(C(=O)OCC(=O)Nc1ccc(Cl)c(S(=O)(=O)N(C)C)c1)c1ccccc1 (stereo not given),"inconclusive [activator, partial curve, poor fit]",–
O=C(NC(=S)Nc1ccc(S(=O)(=O)NC2CCCCC2)cc1)c1cccs1,"inconclusive [activator, partial curve, poor fit]",–
COc1ccc(C(CCNC(C)c2ccccc2)c2ccc(F)cc2)cc1 (stereo not given),"inconclusive [activator, partial curve, poor fit]",–
CC(=O)c1ccc(NC2c3ncccc3C(=O)N2Cc2ccc(F)cc2)cc1 (stereo not given),–,inconclusive: -34.3% [activator]
CCCNS(=O)(=O)c1ccc(OCC(=O)Nc2ccccc2F)cc1,"inconclusive [activator, single point]",–
O=S(=O)(Nc1cccc2c1CCCC2)c1cccc(C(F)(F)F)c1,"inconclusive [activator, single point]",–
O=C(CN1CCN(C(=O)CNC(=O)c2ccc(-c3ccccc3)cc2)CC1)Nc1ccccc1Cl,inactive,–
COc1ccc(CNC(=O)CN2C(=O)c3cccnc3Oc3ccc(C)cc32)cc1,inactive,–
O=C(O)CCN1c2cccc3cccc(c23)S1(=O)=O,"inconclusive [activator, partial curve, poor fit]",–
CCc1ccc(CNC(=O)CN2CCSc3ccccc32)cc1,"inconclusive [activator, partial curve]",–
COc1cccc(CNc2cccc(C(F)(F)F)c2)c1O,"inconclusive [activator, partial curve, poor fit]",–
COc1cc(OC)c(C(=O)OCC(=O)NCC2CCCCC2)cc1OC,"inconclusive [activator, partial curve, poor fit]",–
O=C(O)c1ccc(Cn2cnc3sc4c(c3c2=O)CCCC4)cc1,inactive,–
Cc1cccc(C)c1NC(=O)C(C1CC1)n1c(=O)c(-c2ccco2)nc2ccccc21 (stereo not given),"inconclusive [activator, single point]",–
Cc1cc(-c2nc(C)c(-c3nnc(SCC(=O)Nc4ccc(Cl)cc4)n3C)s2)no1,–,inconclusive: -48.8% [activator]
COC(=O)COc1ccc2oc(=O)cc(-c3cc4ccccc4o3)c2c1,"inconclusive [activator, single point]",–
COc1ccccc1CNC(=O)c1ccc(N2CCCC2)c(NC(=O)NCc2ccccc2)c1,inactive,–
COc1cccc(C2CC(c3cccs3)=NN2C(=O)CSc2nc3ccccc3o2)c1OC (stereo not given),inactive,–

Compound,Potency,growth rescue
Cc1ccc(NC(=S)NC2CCSc3ccccc32)cc1 (stereo not given),"inconclusive [activator, partial curve, poor fit]",–
COc1ccccc1C=C(C(=O)c1ccccc1)c1ccccc1,"inconclusive [activator, full curve]",–
Cc1ccccc1/C=C1\Oc2ccccc2C1=O,inactive,–
CCOc1ccc(C(=O)NCC(c2cccs2)N(C)C)cc1OCC (stereo not given),"inconclusive [activator, partial curve, poor fit]",–
CCc1ccc(CNC(=O)CCSCc2ccccc2F)cc1,"inconclusive [activator, partial curve, poor fit]",–
Cc1cccc(NS(=O)(=O)c2ccc3[nH]c(=O)ccc3c2)c1C,inactive,–
Brc1ccc(-c2nnc3c4ccccc4nc(N4CCOCC4)n23)cc1,"inconclusive [activator, single point]",–
S=C(NCc1ccco1)Nc1ccc(Oc2ccccc2)cc1,"inconclusive [activator, single point]",–
COC(=O)c1ccc(C2C(Oc3ccccc3)C(=O)N2CCc2ccc(OC)c(OC)c2)cc1 (stereo not given),"inconclusive [activator, single point]",–
CCN(NC(=O)C(O)(c1ccc(F)cc1)c1ccc(F)cc1)C(=O)c1ccccc1,–,inconclusive: 35.9% [activator]
COc1ccc(CNC(=S)Nc2cccc(C)c2)cc1,"inconclusive [activator, partial curve, poor fit]",–
Cc1c(C(=O)NCc2ccc(F)cc2)c(-c2ccccc2)nn1-c1ccccc1,"inconclusive [activator, single point]",–
COC(=O)C1=C(C)N(c2cc(Cl)cc(Cl)c2)C(=O)C1,inactive,–
COc1ccccc1NC(=S)NCc1ccc(F)cc1,inactive,–
CC(OC(=O)c1ccc(NC(N)=O)cc1)C(=O)Nc1ccc2c(c1)OCCO2 (stereo not given),"inconclusive [activator, full curve]",–
COc1ccc(NC(=S)NC(=O)C2CCC2)cc1,"inconclusive [activator, partial curve, poor fit]",–
CN(C)c1cccc(C(=O)N(Cc2ccccc2)Cc2ccccc2)c1,"inconclusive [activator, partial curve, poor fit]",–
CC(C)(C)c1ccc(C(=O)NC2CCN(Cc3ccccc3)CC2)cc1,inactive,–
Cc1cccc(NC(=S)NCCc2ccc3c(c2)OCCO3)c1C,"inconclusive [activator, partial curve, poor fit]",–
Cc1cc(C(F)(F)F)n(-c2nc(C(=O)Nc3cccnc3)cs2)n1,inactive,–
COc1cccc(OCc2nc3ccccc3n2CCOc2ccccc2C)c1,"inconclusive [activator, partial curve, poor fit]",–
COc1cccc(NC(=O)C2CCN(C(=O)N3CC(C)Oc4ccccc43)CC2)c1 (stereo not given),inactive,–

# From PubChem BioAssay AID1347071 (National Center for Advancing Translational Sciences (NCATS), 2019)
